Results taken from the supplement of paper PMC3334620.
Over roughly 33,000 sequences, “E-score (-0.5 to 0.5)” has its median near -0.013; the highest 2% begin near 0.3. This is one part of the list.

Target: T1, Msn1 (UniProt P22148)
T1 sequence: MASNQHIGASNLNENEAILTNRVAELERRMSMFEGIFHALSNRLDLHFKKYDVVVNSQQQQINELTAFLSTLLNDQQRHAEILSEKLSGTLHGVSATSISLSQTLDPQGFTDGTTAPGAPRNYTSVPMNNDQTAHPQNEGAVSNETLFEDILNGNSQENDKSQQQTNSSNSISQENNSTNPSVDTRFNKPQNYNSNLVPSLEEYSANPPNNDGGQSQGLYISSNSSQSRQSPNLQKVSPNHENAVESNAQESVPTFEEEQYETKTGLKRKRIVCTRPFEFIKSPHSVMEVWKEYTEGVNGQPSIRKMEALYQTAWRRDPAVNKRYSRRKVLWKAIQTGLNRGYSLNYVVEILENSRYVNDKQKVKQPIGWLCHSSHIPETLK
Assay: PBM E-score (8-mer binding enrichment) (E-score (-0.5 to 0.5)); higher = stronger / more preferred TF binding; most listed sequences are background and not binding sites
Settings: protein concentration: 200 nM; construct: GST-full length
Method in brief: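 PURExpress in vitro transcription/translation supplied GST-tagged yeast transcription factors, either full-length or DNA-binding domain. Applied at about 100-200 nM to universal all-10-mer Agilent arrays double-stranded by primer extension, the bound protein was detected with fluorescent anti-GST. E-scores, modified Wilcoxon-Mann-Whitney statistics, were given by the Universal PBM Analysis Suite to ungapped eight-base words pooled with their reverse complements after masliner normalisation.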

Sequence	PBM E-score
CTACTCAA	0.113
AAGGCACC	-0.244
CCGTGTAA	0.00534
ACGTGTCA	0.254
CTACGCGC	-0.0365
GCGATTGA	-0.0391
TAAGGCCA	-0.0192
GCGGTGAC	0.114
TCTGCGAA	0.0822
ACAGTTCT	0.13
CGAGCAAG	-0.247
ATGTGATC	0.0746
CGTATAAA	0.287
GCCTATCA	-0.00401
ATATAGGA	0.255
GGTCGCAA	-0.11
GCGGGGGA	-0.42
ATCACTTG	0.107
CCATCACC	-0.214
ACACTTCC	0.0144
GACCCAAC	-0.0455
ACCGTGTC	0.222
CCAAGGCA	-0.0766
GGGTCGAC	-0.0447
CTCCGGCA	0.142

Sequence	PBM E-score
AATGTCGC	0.398
CTCCTTTC	-0.214
CAGCGTAC	-0.125
AAGCTTTA	0.0694
ACTGTAGA	0.0261
CAGGTCGC	-0.00167
CGGGGTAC	-0.216
ATTTCTCA	0.211
TCAAATAA	0.234
ATGGGTTC	-0.107
AGGGTATA	0.217
CGATTTCA	0.0548
CAGGACTA	0.165
CAACTATG	0.161
CCCTTGAC	-0.185
CTCGTTTA	0.00364
CGTTTCCA	-0.0212
AAGATCTT	0.0571
CTCTGCAG	-0.0886
CGGCGTCA	-0.146
CTTTTTAA	0.0194
ACAAGCGG	0.253
ATCATGAC	0.17
ATGAGAAC	0.0058
GATGTCAC	0.26

Sequence	PBM E-score
ACCGTAAT	0.0252
AATAGACC	-0.0955
CGGAACTC	0.00812
CCAGCCGA	-0.0639
ACTATCAA	0.111
AAATCCTG	0.258
CACCGTAC	-0.00037
TCTAATCA	0.0873
CATGCTTA	-0.133
AAGCGTCT	-0.0523
CTACGTAG	0.0272
GGATTTTA	0.106
TATTATCA	0.173
CAATGACG	-0.12
AGGCCTTA	-0.113
ATGTAAGC	0.0574
CCTAAAGA	-0.137
ACGAACAC	0.067
AGTGGCTA	-0.146
GAGATTCA	0.0423
TGGAAACA	-0.0372
GTAATCGA	-0.0358
ACACGTTG	0.0399
ACATCCCC	-0.06
AGAAACGA	0.0057

Sequence	PBM E-score
ATGCCCCG	-0.233
CCCCCAAA	-0.139
CCTCTGAG	-0.319
TACCGCAA	0.127
ACGGTGAG	-0.0715
CCATGGTA	-0.0291
CATCCTGA	-0.0354
GAGATCGC	-0.0355
GACCTGAC	-0.119
ACAGTGAA	0.122
AGAGGGCG	-0.186
GTAGGAGA	-0.204
CCCAGTAG	-0.136
GGCATAAA	0.0749
AAAGACAG	0.193
GAGGCCCA	-0.379
AGCCCCTA	-0.229
TGAACTAA	-0.00251
AATGTACC	0.311
CCTACTCA	-0.133
CGTTTCCC	-0.125
CTCGAGAG	-0.0394
GGATAACC	-0.227
AAGTTATC	0.141
CTCCGTAA	-0.17

Sequence	PBM E-score
CGCACAGA	0.042
CGCGACAG	-0.00106
CCCATCTC	-0.269
AAGCGGAG	-0.106
GCTAAGAC	0.101
CTGTATCC	-0.00014
ATAAACGC	-0.0374
CCGTTGGC	-0.117
CAAGCTCG	0.107
ATACCCTA	0.0956
CGTTGCAA	0.109
AATCTCTA	-0.0142
CACCGCCG	-0.207
CAATATGA	0.0187
AGTAGACC	-0.0365
CTGCCTGC	-0.21
CACCCCTA	-0.238
GCTATAGA	-0.142
CGGACCTC	0.0121
CCGGAGTC	-0.161
CGCTTGGC	-0.234
CGAGACTA	0.21
AGTTTAAC	-0.121
GATGCGGC	-0.0887
GCAGGGGA	-0.349

Sequence	PBM E-score
CGGAACGC	0.0192
AGCCTGGC	-0.181
GTAGCCCA	-0.121
GGGAGTAA	0.0327
CTATTCAA	0.0406
AGGGGTAC	-0.0838
GTGACACA	0.286
ACCGGGAA	0.093
AGCACGCG	-0.00682
ACTCATTG	-0.207
AGCTTGGC	0.0439
AGCTCCGA	0.117
CGGGCCCG	-0.0103
CCGCTAAG	0.0391
AGTAGATG	-0.0118
CAGGCCAC	-0.226
CAGACGCG	-0.0795
GCCTTTGA	0.0544
ACTTAGGA	-0.00431
GTAGTTAA	-0.0573
GGGGCCAA	-0.214
AGAGCTGG	-0.017
GGAGCCCA	-0.274
GACTGTAA	0.0195
ATCGGTTC	0.0707

Sequence	PBM E-score
AGCCTTCC	-0.323
TACGGCTA	-0.145
CAGATGAG	-0.0027
AACGGCTT	-0.151
GCAGGTGA	-0.134
CTCATGTC	0.27
AGCCATGG	-0.146
TAAACCGA	0.054
CGTGGGGA	0.0354
AGGGCCAT	-0.246
GTTCGTCA	-0.192
AGCCCTGC	-0.252
CTAGGGCC	-0.0781
CCGATCAC	0.0887
AGGGGGAC	-0.305
ACCGCTTC	-0.244
CCAGGTGA	-0.113
ATGGTATG	-0.0931
CCAAATAA	0.0707
GTATCTTA	0.17
AAATCAAG	0.0727
ACATGACA	0.297
CCAATCTC	0.05
ACCTAACC	0.00159
TCGGCAGA	0.0685

Sequence	PBM E-score
ACCCAACC	-0.107
AAGAACTT	0.198
ATAATGAT	-0.0727
CTTTCTCA	0.165
GAAAAAAC	0.223
CTTGATGC	-0.174
AGATGGAG	0.0113
AGGTGCCA	-0.0792
GAGTAGGC	-0.169
CACCTGGC	-0.188
ATACGGTA	-0.0643
ATACCACA	0.0813
GCGGTAGC	0.041
CGAGACCC	-0.0936
CGTGTTCC	-0.0397
CTTCGTTC	-0.0446
GCGTCTCC	-0.0593
GAGACGAA	-0.0182
ATTCTCTC	0.088
ATCATCAA	0.0569
TCGATGAA	-0.0265
CGCTCGTA	-0.227
TAACTGCA	-0.0504
CTACAATA	0.0926
AAGTGAGA	0.0104

Sequence	PBM E-score
TAGCGGGA	-0.174
GCTACAAC	-0.168
ATTCAACC	0.0516
TAAGTGGA	-0.00503
AGTCGCTG	-0.0587
CCGGAAGC	-0.0285
ATCTCCAA	0.0293
ACAGTAAG	-0.0118
GTCCCTCA	0.0279
CGGTCTCA	-0.0128
GTCAAGCA	-0.198
AGTTAAAT	0.0476
GGGCATGA	-0.269
CTATATTC	0.0379
ACGAGGCT	0.0912
CTAATGGA	0.0103
CCCCGATC	-0.221
AACTGGTA	-0.176
TTTCAAAA	0.206
